This passage reports binding signal (log fluorescence intensity) results from paper PMC6602471.

Some of the results follow. At the low end of the ranking the order means little.

The target in the experiment is T1, ETS1 (UniProt P14921).
T1 sequence: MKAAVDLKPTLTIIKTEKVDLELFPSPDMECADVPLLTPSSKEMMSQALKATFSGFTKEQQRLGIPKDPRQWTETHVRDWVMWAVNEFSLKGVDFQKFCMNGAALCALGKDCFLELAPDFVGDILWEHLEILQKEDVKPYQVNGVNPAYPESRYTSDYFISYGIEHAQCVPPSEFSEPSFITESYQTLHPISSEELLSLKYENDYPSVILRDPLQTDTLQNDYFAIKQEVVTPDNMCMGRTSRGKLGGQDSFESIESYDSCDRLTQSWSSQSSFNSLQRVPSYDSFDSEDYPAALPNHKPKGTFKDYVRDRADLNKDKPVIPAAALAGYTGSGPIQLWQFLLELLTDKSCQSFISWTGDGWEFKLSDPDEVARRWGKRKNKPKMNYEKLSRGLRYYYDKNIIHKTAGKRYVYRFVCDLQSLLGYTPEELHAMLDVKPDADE
Nature of the experiment: custom PBM. The settings on record: custom protein-binding microarray; buffer, salt, pH and temperature not stated; high values mean tight binding; double strand, one strand shown.
Regarding “GATTAATTTCTGCTCTTATTCGCACGTGCCATAACAGTCTTGATTCGCTTGACGCTGCTG”, the binding signal (log fluorescence intensity) was found to be 8.42.

As to “CACAATTTTTACAGTAATGTAGGACGCGTAACTCCTGTCTTGATTCGCTTGACGCTGCTG”, the binding signal (log fluorescence intensity) is 8.22.

For “CGGAAGTGTCGTAAACGTGGGATATCCGGTTCTTCTGTCTTGATTCGCTTGACGCTGCTG”, the binding signal (log fluorescence intensity) was determined as 11.6.

Consider “TGAAAAAGGCCCAGGGTAACACCGGAAGTGGGCTTAGTCTTGATTCGCTTGACGCTGCTG”, for which the binding signal (log fluorescence intensity) stood at 11.8.

Turning to “CACAATTTTTACAGTAATGTAGCACGCGTAAATCCTGTCTTGATTCGCTTGACGCTGCTG”, the binding signal (log fluorescence intensity) amounted to 8.32.

On to “GCTTCTGCGGTGCATACCCCACCGGATGTGACCCCGGTCTTGATTCGCTTGACGCTGCTG”, for which the binding signal (log fluorescence intensity) amounted to 10.3.

As for “TGTCGGGTAAGGGGATGTAGATCACGTGAATGAAAAGTCTTGATTCGCTTGACGCTGCTG”, the binding signal (log fluorescence intensity) was determined as 8.25.

As to “TAAAGGGAAGACGGTTGTGCTAGTTCCGGGTATTAAGTCTTGATTCGCTTGACGCTGCTG”, the binding signal (log fluorescence intensity) was 8.6.

Regarding “CTGGGACTTGACCCAACTGTGCCACGTGGGTCGTTTGTCTTGATTCGCTTGACGCTGCTG”, the binding signal (log fluorescence intensity) turned out to be 8.21.

Take “GTGTATAGGATCCCATCCAACACACGTGTTAACATGGTCTTGATTCGCTTGACGCTGCTG”: the binding signal (log fluorescence intensity) was found to be 8.34.

In the case of “TAAAGGGACGACGGTTGTGGTAGTTCCGGGTATTAAGTCTTGATTCGCTTGACGCTGCTG”, the binding signal (log fluorescence intensity) stood at 8.43.

“GCTGCTGCGGTGCATACCCCACCGGATGTGACCCGGGTCTTGATTCGCTTGACGCTGCTG”: the binding signal (log fluorescence intensity) was 10.2.

For the sequence “TCCGGCTACCAGCTCCACCCACTTCAGGCCTTGTGGGTCTTGATTCGCTTGACGCTGCTG”, the binding signal (log fluorescence intensity) came out at 8.17.

On to “TAAAGGGAAGACGGTTGTGTTAGTTCCGGGTATTAAGTCTTGATTCGCTTGACGCTGCTG”, for which the binding signal (log fluorescence intensity) is 8.47.

“GGAAAAAGGCCCAGGGTAACACCGGACGTGGGCTTAGTCTTGATTCGCTTGACGCTGCTG”: the binding signal (log fluorescence intensity) is 8.8.

As to “GATTAATTTCTGCCCTTATTCGTACGTGCCATAACAGTCTTGATTCGCTTGACGCTGCTG”, the binding signal (log fluorescence intensity) came out at 8.36.

“GTGTATAGGATCCCATCCAACACCCGTGTTAAAATGGTCTTGATTCGCTTGACGCTGCTG”: the binding signal (log fluorescence intensity) is 8.24.

For “CTGGGACTTGATCCAACTCTGCCACGTGGGTCGTTTGTCTTGATTCGCTTGACGCTGCTG”, the binding signal (log fluorescence intensity) is 8.12.

On to “CGGAAGGGTCGTAAACGTCGGATATCCGGTTCTTCTGTCTTGATTCGCTTGACGCTGCTG”, for which the binding signal (log fluorescence intensity) was 11.6.

Regarding “TCCGGCTACCAGCTCCACCCACTTCAGGTCTTGTAGGTCTTGATTCGCTTGACGCTGCTG”, the binding signal (log fluorescence intensity) amounted to 8.3.

Turning to “CACAATTTTTACAGTAATGTAGCTCGCGTAACTCCTGTCTTGATTCGCTTGACGCTGCTG”, the binding signal (log fluorescence intensity) was determined as 8.35.

Take “CGGAAGTGTCGTAAACGTCGGATATCCGGGTCTTCTGTCTTGATTCGCTTGACGCTGCTG”: the binding signal (log fluorescence intensity) came to 10.2.

With “GCTGCTGCGGTGCATACCCCACCGGATGTGACTCCGGTCTTGATTCGCTTGACGCTGCTG”, the binding signal (log fluorescence intensity) came to 10.6.

“GCTGCTGCGGTGCATACCTCACCGGATGTGACCCCGGTCTTGATTCGCTTGACGCTGCTG”: the binding signal (log fluorescence intensity) worked out at 9.97.

For “GCTGCTGCGGTGCATACCCCACCCGATGTGACCCCGGTCTTGATTCGCTTGACGCTGCTG”, the binding signal (log fluorescence intensity) was 8.07.

In the case of “GATTAATTTCTGCCCTTATTCGCACGAGCCATAACAGTCTTGATTCGCTTGACGCTGCTG”, the binding signal (log fluorescence intensity) was 8.21.

With “TAAAGGGAAGACGGTTGTGGTAGTTCCGGGTATTACGTCTTGATTCGCTTGACGCTGCTG”, the binding signal (log fluorescence intensity) came to 8.47.

Regarding “CTGGGACTTGACCCAACTCTACCACGTGGGTCGTTTGTCTTGATTCGCTTGACGCTGCTG”, the binding signal (log fluorescence intensity) turned out to be 8.11.

As to “TACTGACTTATATATGCGAGTGCACATGAATAGACCGTCTTGATTCGCTTGACGCTGCTG”, the binding signal (log fluorescence intensity) was 8.33.

Take “TACTGACTTATATATGCGAATGCACATGACTAGACCGTCTTGATTCGCTTGACGCTGCTG”: the binding signal (log fluorescence intensity) stood at 8.23.

In the case of “TGCTGACTTATATATGCGAATGCACATGAATAGACCGTCTTGATTCGCTTGACGCTGCTG”, the binding signal (log fluorescence intensity) worked out at 8.14.

Regarding “CTGGGACTTGACCCAACTCTGCCACGTGGGTCGTTGGTCTTGATTCGCTTGACGCTGCTG”, the binding signal (log fluorescence intensity) came out at 8.3.

On to “AGAAAAAGGCCCAGGGTAACACCGGAAGTGGGCTTAGTCTTGATTCGCTTGACGCTGCTG”, for which the binding signal (log fluorescence intensity) worked out at 11.9.

“CAGCATAGGACATCTTCCCTGAAGCAATTGATAACCGTCTTGATTCGCTTGACGCTGCTG”: the binding signal (log fluorescence intensity) came to 8.27.

Take “TCCGGCTACCAGCTCCACCCACTTCAGGCCTTGTCGGTCTTGATTCGCTTGACGCTGCTG”: the binding signal (log fluorescence intensity) worked out at 8.43.

For “TAAAGGGAAGACGGTTGTGGTAGTTCTGGGTATTAAGTCTTGATTCGCTTGACGCTGCTG”, the binding signal (log fluorescence intensity) came out at 8.17.

Turning to “GATTAATTTCTGCCCTTATTCGCACGTGCCATAATAGTCTTGATTCGCTTGACGCTGCTG”, the binding signal (log fluorescence intensity) was 8.19.

“GGAACAAGGCCCAGGGTAACACCGGAAGTGGGCTTAGTCTTGATTCGCTTGACGCTGCTG”: the binding signal (log fluorescence intensity) stood at 11.9.

Regarding “TTTCGGGTAAGGGAATGTAGATCACGTGAATGAAAAGTCTTGATTCGCTTGACGCTGCTG”, the binding signal (log fluorescence intensity) turned out to be 7.9.

Regarding “CGGAAGTGTCGTAAATGTCGGATATCCGGTTCTTCTGTCTTGATTCGCTTGACGCTGCTG”, the binding signal (log fluorescence intensity) was 11.9.
